Measurements as given in PubChem BioAssay AID1508642 (National Center for Advancing Translational Sciences (NCATS), 2021).
Among all 43,000 compounds or so, about 200 (0.47%) were called active. Roughly 12% stayed inconclusive and do not appear here. Calls follow the shape of the dose curve; as a rule, active = well fitted cell-killing curve with a large enough effect; inconclusive = small, poorly fitted or top-dose-only effect, or effect the other way; inactive = flat fitted curve, though single readings scatter. The list shows a part of the results.

Assay: Cell viability qHTS assay in S16 Pmp22-F2sN cells; also: nearly all actives have a fitted effect of over 65% in size
Details: S16 Pmp22-F2sN Schwann cells viability, CellTiter-Glo, 24 h; series mostly up to 57.5 µM; activity change, negative = cytotoxicity: at the top concentration
Procedure, shortened: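 Viability was measured by CellTiter-Glo luminescence (15 min, room temperature). This followed 24 h at 37 °C of compound exposure (23 nL pin transfer) in S16 Pmp22-F2sN Schwann cells, 500-1,000 per well.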
% is scaled to controls: 0 for no effect and ±100 for the full control effect.

Q: With `CCOc1ccc(-c2ccc(NS(=O)(=O)c3cc(C)c(C)cc3C)cc2)nn1` as the compound, how does the “activity change, negative = cytotoxicity” value read?
A: inactive: -7.91%

Q: With `CCOc1ccc(C(=O)Nc2ccc(-c3nc4cc(CC)ccc4o3)cc2)cc1` as the compound, how does the “activity change, negative = cytotoxicity” value read?
A: inactive: 1.97%

Q: Which “activity change, negative = cytotoxicity” value does the source give for `O=C(c1cc2c(=O)[nH]c3ccccc3c2s1)N1CCN(c2ccc(F)cc2)CC1` here?
A: inactive: 21.6%

Q: Which “activity change, negative = cytotoxicity” value does the source give for `CC(NC(=O)CCn1c(=O)c2cccn2c2ccc(F)cc21)c1ccccc1` (stereo not drawn) here?
A: inactive: -4.79%

Q: For `COc1ccc(-n2c(/C=C/c3cc(OC)c(OC)cc3OC)nc3cc4ccccc4cc3c2=O)cc1Cl`, which “activity change, negative = cytotoxicity” value is on record?
A: inactive: 6.39%

Q: Which “activity change, negative = cytotoxicity” value does the source give for `Cc1ccc(OCCSc2nc3ccc(NC(=O)COc4ccc(F)cc4)cc3s2)cc1` here?
A: inactive: 21.4%

Q: For `O=C(COc1ccccc1)Nc1ccc(C(=O)OCc2cc(=O)n3nc(C4CC4)sc3n2)cc1`, which “activity change, negative = cytotoxicity” value is on record?
A: inactive: 4.28%

Q: Which “activity change, negative = cytotoxicity” value does the source give for `Cc1nc2nc(SCC(=O)NCc3ccccc3)nn2c(C)c1Cc1ccccc1Cl` here?
A: inactive: 1%

Q: For `CCOC(=O)c1cc(-c2ccc(F)cc2)n(CC(=O)NC2CCCCC2)c1C`, which “activity change, negative = cytotoxicity” value is on record?
A: inactive: 9.29%

Q: For `Cc1cc(C)n2c(Nc3c(C)cccc3C)c(-c3ccsc3)nc2n1`, which “activity change, negative = cytotoxicity” value is on record?
A: inactive: 21%

Q: With `O=C(CN1CCCN(Cc2ccccc2Cl)S1(=O)=O)Nc1ccc2c(c1)OCCO2` as the compound, how does the “activity change, negative = cytotoxicity” value read?
A: inactive: 2.02%

Q: Which “activity change, negative = cytotoxicity” value does the source give for `O=C(Cc1cccs1)NC1CC(=O)N(c2ccccc2)C1` (stereo not drawn) here?
A: inactive: 0.398%

Q: For `CCc1cccc(C)c1NC(=O)CN1CCCN(Cc2ccc(C)cc2)S1(=O)=O`, which “activity change, negative = cytotoxicity” value is on record?
A: inactive: -2.88%

Q: With `Cc1ccc(C)c(CN2CCC(CNC(=O)Cn3ncc4c([nH]c5ccccc54)c3=O)CC2)c1` as the compound, how does the “activity change, negative = cytotoxicity” value read?
A: inactive: 1.45%

Q: For `CCn1c2ccccc2c2nnc(N3CCN(c4cccc(C)c4C)CC3)nc21`, which “activity change, negative = cytotoxicity” value is on record?
A: inactive: 2.39%

Q: Which “activity change, negative = cytotoxicity” value does the source give for `O=C(NCCCN1CCOCC1)c1ccc2c(c1)N(Cc1ccccc1)C(=O)c1ccccc1S2` here?
A: inactive: 8.64%

Q: For `Cc1cccc(OCCCCn2nnc3sc4c(c3c2=O)CCC(C)C4)c1` (stereo not drawn), which “activity change, negative = cytotoxicity” value is on record?
A: inactive: -2.64%

Q: For `O=C(Cn1nc(N2CCN(c3ccccc3)CC2)ccc1=O)NCc1cccc(Cl)c1`, which “activity change, negative = cytotoxicity” value is on record?
A: inactive: 5.34%

Q: Which “activity change, negative = cytotoxicity” value does the source give for `CCOC(=O)CSc1nc2sc3c(c2c(=O)n1Cc1ccccc1)CC(C)CC3` (stereo not drawn) here?
A: inactive: 27%

Q: Which “activity change, negative = cytotoxicity” value does the source give for `Cc1ccc(-n2ncc3c(NCCc4ccccc4)ncnc32)cc1C` here?
A: inactive: 1.67%

Q: Which “activity change, negative = cytotoxicity” value does the source give for `CCOc1ccccc1CNC(=O)CN1C(=O)CCCc2ccccc21` here?
A: inactive: -1.28%

Q: With `CCOc1ccc(NC(=O)NC(C)c2c(-n3cccc3)sc(C)c2C)cc1` (stereo not drawn) as the compound, how does the “activity change, negative = cytotoxicity” value read?
A: inactive: 0.466%

Q: Which “activity change, negative = cytotoxicity” value does the source give for `Cn1c(=O)c2c(nc(NCCc3ccccc3)n2Cc2ccc(Cl)c(Cl)c2)n(C)c1=O` here?
A: inactive: 8.29%

Q: For `CC(C)c1nn2c(=O)cc(COC(=O)c3ccccc3NC(=O)c3cccs3)nc2s1`, which “activity change, negative = cytotoxicity” value is on record?
A: inactive: 6.22%

Q: With `CCCN(Cc1cccs1)C(=O)Nc1ccccc1C` as the compound, how does the “activity change, negative = cytotoxicity” value read?
A: inactive: 1.91%

Q: With `CC1CCCN(c2csc3ccccc3c2=O)C1` (stereo not drawn) as the compound, how does the “activity change, negative = cytotoxicity” value read?
A: inactive: 0.0615%

Q: With `COc1ccc(S(=O)(=O)NCCc2cn3ccsc3n2)cc1OC` as the compound, how does the “activity change, negative = cytotoxicity” value read?
A: inactive: 1.45%

Q: For `CCOc1ccc(N(Cc2cc3cc(C)ccc3[nH]c2=O)C(=O)c2cccc(Cl)c2)cc1`, which “activity change, negative = cytotoxicity” value is on record?
A: inactive: 6.56%

Q: Which “activity change, negative = cytotoxicity” value does the source give for `COC(=O)c1ccc(OC)c(CN2CCCN(Cc3ccc(C)cc3)S2(=O)=O)c1` here?
A: inactive: -4.36%

Q: With `Cc1nc2sccn2c(=O)c1S(=O)(=O)NCc1ccccc1` as the compound, how does the “activity change, negative = cytotoxicity” value read?
A: inactive: -6.38%

Q: With `Cc1ccc(C)c(N2CCN(C(=O)c3ccc4c(c3)c(C)c(C)n4C)CC2)c1` as the compound, how does the “activity change, negative = cytotoxicity” value read?
A: inactive: -3.77%

Q: For `CCOc1ccccc1C1CC(=O)NC(C)=C1C(=O)OCc1ccc(C)cc1` (stereo not drawn), which “activity change, negative = cytotoxicity” value is on record?
A: inactive: 16.6%

Q: For `Cc1cccc(C)c1OCC(=O)N(Cc1ccc(Cl)cc1)CC1CCCO1` (stereo not drawn), which “activity change, negative = cytotoxicity” value is on record?
A: inactive: -3.08%

Q: For `Cc1oc2c(c1C(=O)Nc1ccc(Cl)cc1F)C1=NCCN1C=N2`, which “activity change, negative = cytotoxicity” value is on record?
A: inactive: 23.1%

Q: Which “activity change, negative = cytotoxicity” value does the source give for `COc1ccc(Cl)cc1C(=O)NCC(c1ccc(N(C)C)cc1)N1CCOCC1` (stereo not drawn) here?
A: inactive: 2.96%

Q: For `CCOC(=O)c1ccc(NC(=O)c2cc3c(=O)n(C)c4ccccc4c3n2C)cc1`, which “activity change, negative = cytotoxicity” value is on record?
A: inactive: 0.919%

Q: With `Cn1c(=O)cc(SCC(=O)Nc2cccc(C#N)c2)c2ccc(Cl)cc21` as the compound, how does the “activity change, negative = cytotoxicity” value read?
A: inactive: -5.67%

Q: With `Cc1ccc(C)c(NC(=O)C(=O)NCCc2csc(-c3cccc(F)c3)n2)c1` as the compound, how does the “activity change, negative = cytotoxicity” value read?
A: inactive: 9.55%

Q: For `COc1cc2c(C(=O)N3CCN(c4ccc(C)cc4)C(C)C3)cn(CC(C)C)c(=O)c2cc1OC` (stereo not drawn), which “activity change, negative = cytotoxicity” value is on record?
A: inactive: -18.4%

Q: With `Cc1nc2ccccn2c(=O)c1NC(=O)c1ccccc1Cl` as the compound, how does the “activity change, negative = cytotoxicity” value read?
A: inactive: -2.19%

Q: For `COc1cccc(NC(=O)CCc2nc(-c3cc(OC)c(OC)c(OC)c3)no2)c1`, which “activity change, negative = cytotoxicity” value is on record?
A: inactive: -3.34%

Q: With `COc1ccc(CCNC(=O)c2cc(-c3ccc(Cl)cc3)on2)cc1OC` as the compound, how does the “activity change, negative = cytotoxicity” value read?
A: inactive: 7.49%

Q: For `CCc1ccc(NC(=O)Cn2ccn(-c3cccc(Cl)c3)c(=O)c2=O)cc1`, which “activity change, negative = cytotoxicity” value is on record?
A: inactive: 6.57%

Q: With `COc1ccc(C(=O)N2CCC(c3ccncc3)CC2)cc1OC` as the compound, how does the “activity change, negative = cytotoxicity” value read?
A: inactive: -1.93%

Q: Which “activity change, negative = cytotoxicity” value does the source give for `Cc1ccc(CN2CCc3nc(N4CCN(C)CC4)ncc3C2)cc1` here?
A: inactive: 1.27%

Q: With `COc1ccc(N2CCN(C(=O)Cc3noc4ccc(C)cc34)CC2)cc1` as the compound, how does the “activity change, negative = cytotoxicity” value read?
A: inactive: 0.0813%

Q: Which “activity change, negative = cytotoxicity” value does the source give for `CCOC(=O)C1=C(CN2CCN(c3ccccc3F)CC2)NC(=O)NC1c1ccc(OC)cc1` (stereo not drawn) here?
A: inactive: -10.5%

Q: With `COC(=O)CSc1ccc2nnc(CCNS(=O)(=O)c3ccc(C)cc3)n2n1` as the compound, how does the “activity change, negative = cytotoxicity” value read?
A: inactive: 0.616%

Q: Which “activity change, negative = cytotoxicity” value does the source give for `CCc1cccc(C)c1Nc1c(-c2cccc(O)c2)nc2cnccn12` here?
A: inactive: -21.1%

Q: Which “activity change, negative = cytotoxicity” value does the source give for `COc1ccc(/C=C/c2nc(C#N)c(NC3CCCCC3)o2)cc1OC` here?
A: inactive: -22%

Q: Which “activity change, negative = cytotoxicity” value does the source give for `O=C(CCS(=O)(=O)c1cc2c3c(c1)CCN3C(=O)CC2)NCc1ccc(Cl)cc1` here?
A: inactive: -14.7%

Q: With `CCOc1ccccc1NC(=O)Cn1nc2c3cc(F)ccc3n(Cc3cccc(C)c3)cc-2c1=O` as the compound, how does the “activity change, negative = cytotoxicity” value read?
A: inactive: -1.36%

Q: Which “activity change, negative = cytotoxicity” value does the source give for `COc1ccccc1CNC(=O)Cn1c(-c2cccs2)cc2cc(F)ccc21` here?
A: inactive: 1.56%

Q: Which “activity change, negative = cytotoxicity” value does the source give for `COc1ccc(-n2c(SCC(=O)Nc3cc(C)cc(C)c3)nc3c(oc4ccccc43)c2=O)cc1` here?
A: inactive: 11.6%

Q: Which “activity change, negative = cytotoxicity” value does the source give for `CCOc1ccc(-c2cc(NC(=O)c3c(F)cccc3F)c(C(=O)OC)s2)cc1` here?
A: inactive: -23.1%

Q: For `COc1ccccc1N1CCN(C(=O)c2nc(-c3ccc(C)cc3)n3c2CCCCC3)CC1`, which “activity change, negative = cytotoxicity” value is on record?
A: inactive: 9.71%

Q: For `CC1CCN(C(=O)c2ccccc2NC(=O)c2nsc3ccccc23)CC1`, which “activity change, negative = cytotoxicity” value is on record?
A: inactive: -0.731%

Q: Which “activity change, negative = cytotoxicity” value does the source give for `CCc1cccc(NC(=O)C2CCCN2S(=O)(=O)c2ccc3c(c2)n(C)c(=O)c(=O)n3C)c1` (stereo not drawn) here?
A: inactive: 0.0413%

Q: With `Cc1cc(C)c(/C=C/c2onc(C)c2S(=O)(=O)N2CCC(C(=O)NCC(C)c3ccccc3)CC2)c(C)c1` (stereo not drawn) as the compound, how does the “activity change, negative = cytotoxicity” value read?
A: inactive: -8.22%

Q: With `Cc1cc(NC(=O)CC(C)C)cc(-c2nc3ncccc3o2)c1O` as the compound, how does the “activity change, negative = cytotoxicity” value read?
A: inactive: 17.4%

Q: For `COc1ccc(NC(=O)c2cc(S(=O)(=O)N3CCCCC3)c[nH]2)cc1Cl`, which “activity change, negative = cytotoxicity” value is on record?
A: inactive: -0.284%

Q: For `COC(=O)c1c(NC(=O)C(C)Oc2ccc(Cl)cc2Cl)sc2c1CCCC2` (stereo not drawn), which “activity change, negative = cytotoxicity” value is on record?
A: inactive: 0.309%

Q: For `Cc1nn(C)c2c1c(-c1ccccc1)cc(=O)n2C(C)C(=O)NCCc1ccc(Cl)cc1` (stereo not drawn), which “activity change, negative = cytotoxicity” value is on record?
A: inactive: -28.2%
